# Experimental data: PubChem BioAssay (NCI)
# The source holds several records for some structures; these can differ, active in one and inactive in another.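 48-hour exposure, single concentration, 96-well plates; percent growth endpoint where 0 means no net growth. Active: below 10.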 For part of its entries the source gives two or more results. Only these are listed. The source may hold further records. For part of these data: This drug was run again and again over the years, at its own concentration, as given; one value stands for one run. Additions like (4×) give the number of equal values in this list. Some values that stand alone complete this part of the results. Activity calls are given as the source filed them.
# Assays:
# [1] = system: UACC-257 melanoma; test: NCI-60 one-dose screen, 48 h (100 = growth as untreated, 0 = no growth, -100 = all killed)
# [2] = system: SK-MEL-2 melanoma; test: as above; details: 0.25 µM
compound,measurement,setting,value
COc1cccc2c1C(=O)c1c(O)c3c(c(O)c1C2=O)C[C@@](O)(C(=O)CO)C[C@@H]3OC1CC(N)C(O)C(C)O1 (stereo not given in full),growth,"[1]; 0.25 µM, runs of 2021","inactive: 51.8, 54.3 (2×), 48.1, 46.4, 48.2, 49, 59.3, 50.6, 40.5, 43.9, 43, 46.2, 48.7 (2×), 51.9 (2×), 57.8, 53.5, 43.6, 44.5 (2×), 46.5, 42.1, 42.8 (2×), 47.4, 47.6, 39.4, 55.3, 56.4, 55.4, 49.4, 56.5, 56.9, 48.5, 45.2, 62.2, 54.4, 61.1, 67.8, 41.7, 45, 35.9, 20.9, 34.7, 55.9, 32.2, 31.9, 43.8, 46.7%"
same,growth,"[1]; 0.25 µM, runs of 2022","active: -32.4%, -29.2%, -27.3% and inactive: 34.7, 35.8, 44.7, 11.4, 39.4, 41.2, 48.2, 31.2, 50.2, 62.8, 45.6, 42.7, 39.3, 28.6, 72.6, 83.2, 41.5, 80.4, 74.4, 79.4, 50.9, 52.3, 42.9, 41.8%"
same,growth,"[1]; 25 µM, runs of 1991","active: -62, -76.4, -60, -58.6, -71.3, -78.8, -53.6, -83.1 (2×), -70.9, -48.2, -37, -44.2, -89.3, -71.1, -58.5, -80.5% and inactive: 11.4%"
same,growth,"[1]; 25 µM, runs of 1992","active: -71.8, -49.2, -53.6, -44.9, -8.88, -88.9, -68.6, -59.2, -85.6, -75.9, -44.7 (2×), -46.3, -43.2, -5.66, -27.2, -63.8, -49, -59.8 (2×), -62.6, -56.7, -74.3, -40.1 (2×), -83.4, -89, -24.4, -45.2, -32.1, -14.5, -18.1, -35.6, -0.964, -29.3, -71.1, -76.4, -73.5, -60.1, -72.9, -64.8, -89.8, -71.5, -53.4, -31.5, -49.4, -63.6, -20.4, 6.6, -15.1, -13.4, -73, -77.3, -85.1, -87.1, -80.6, -77.4, -15, -26.6, -38.7, -29.7, -20.5, -14.3, -62.1 (2×), -85.3, -67, -77.1, -86.7, -42.6, -74.6, -79.2, -48.1, -22.9, 1.15, -45.4, -30.5, -80.9, -33.3, -95.9, -81.6 (2×), -79.4, -83.2, -92, -30.2, 7.05, -34.6, -16.3, -63.7, -78.8, -60.5, -25.4, -52.3, -27.9, -23.8, -64.6, -69.6, -71.9, -54.3, -56.8, -31.7, -25.3, -28.3, -77, -60.3, -61.7, -60.6, -27.6, -64.9, -29.2, -33.4, -74.2, -72.5, -36.3, -21.8, -54.4%"
same,growth,"[1]; 25 µM, runs of 1993","active: -72.8, -36.5, -34.8, -61.4, -80.2, -19.6, -49.4, -56.5 (2×), -76.2, -58.7, -61.2, -30.8, -49.6, -52.6, -60.1, -39.2, -50.5, -88.3, -86.6, -75.9, 9.76, -60.6, -53.1, -78.8, -61.7, -69.2, -25.1, -71.6, -54.4, -76.5, -83.1, -78.4, -66.3, -85.9, -89, -14.8, -85.1, -44.4, -63.9, -92, -78.5, -53.2, -95.6, -70%"
same,growth,"[1]; 25 µM, runs of 1994","active: -16.9, -46.2, -75, -65.9, -79.9, -93.5, -46.4, -73.5, -73.2, -89.4, -47.4, -30.2, -57.7, -72.6, -77.6, -50.3, -84.4, -49.8, -52, -57.1, -71.3, -67.9, -82.1, -81.4, -70.5, -52.5, -10.5, -74, -61.9, -52.1, -85.5, -46.1, -24.8% and inactive: 97.6%"
same,growth,"[1]; 25 µM, runs of 1995","active: -32.5, -42.6, -56, -14.9, -59.8, -42.1, -76.8, -24.1, -47.2, -64.4, -82.3, -50.8, -30.4, -91.7, -83.4, -30.1, -45.6, -65, -69.1, -80.3, -93.1, -95.9, -64.5, -59.9, -42.3, -83, -38.3, -64.7, -46.7, -55.4, -69, -69.6, -45.3, -68.2, -84, -78.9, -60, -63.4, -48.9, -57.7, -79.1%"
same,growth,"[1]; 25 µM, runs of 1996","active: -56.4 (2×), 8.78, -53.1, -8.68, -53.6, -48.2, -24.1, -3.97, -83.8, -9.58, 1.24, -20.7, -24.6, -20.6, -11, -38.8, -20, -16.8, -12.2, -19.4, -1.39, -23.2, -61.8, -40.1, -20.1, -4.15, -42.4, -59, -68.7, -74, -72.8, -32.4, -20.5, -32.8, -73.1, -61.3, -51.2, -34.7, -16.5, -15.1, 7.56, -21.1, -26.2, -43.8, -37, -44.4, -37.5, -63.8, -23.9, -48.7, -56.7, -35.8, -48.4, -53.3% and inactive: 41.2%"
same,growth,"[1]; 25 µM, runs of 1997","active: -56.4, -80.8, -53.8, -29.9, -51.6, -16.7, -39.5, -63, -21.1, -69.5, -64.4, -68.9, -47.1, -38.9, -68.4, -67.8, -35.9, -66.4, -58.4, -52.7, -61.2, -75.8, -33.1, -65.2, -50.5, -41.2, -84.6, -85.5, -61.5, -53.3, -59.3, -27.2, -13.3, -11.1, -29.1, -84, -48.1, -49.8, -70.3, -58, -18.4, -6.5, -13.1, -18.5%"
same,growth,"[1]; 25 µM, runs of 1998","active: -31.1 (2×), -41.3, -1.11, -62.8, -8.44, -29.7, -27, 7.28, -37.3, -19.3, -24.1, 5.36, -17.6, -48.5, -51.6, -38.1, -60.4, -17.7, -35.8, -23.1, -49.1% and inactive: 18.8%, 25.2%"
same,growth,"[1]; 25 µM, runs of 1999","active: -60.4, -46.8, -52.3, -51.4, 6.7, -100 (3×), -95.7, -72, -31.2, -90.4, -48.4, 0.465, -94.4, -52.8, -99.5%"
same,growth,"[1]; 25 µM, runs of 2000","active: -100% (2×), -45.2%, -94.2%"
same,growth,[2]; runs of 2006,inactive: 62.8%
same,growth,[2]; runs of 2007,"inactive: 62.4, 71.3, 69.5, 46.7, 67.7, 44.5 (2×), 75.6, 79.8, 57.9, 63.1, 78.7, 63.5, 78.3, 66.7, 72.9, 75.3, 79.2, 72.6, 78.4, 47.4, 35.1, 40.2, 77.1, 61.5, 82.9, 61.4, 67.1, 26.5, 68.8, 51.3, 37, 33.4, 114, 92.5, 70.6, 64.7, 56.5, 57, 63.2%"
same,growth,[2]; runs of 2008,"inactive: 53.6, 46.7, 52.8, 45.7, 65.4, 79.4, 73.5 (2×), 60.5, 81, 60, 71.5, 69.7, 84.4 (2×), 19.3, 62.4, 40.3, 47.3, 37.2, 44.6, 39.4, 16.9, 41.5, 63.6, 97.6, 61.6, 30.4 (2×), 63.7, 29.3, 49.5, 48.4, 26.6, 41.8, 31.1, 60.8, 65.3, 60.1, 59.2, 80.8, 76.3, 36.2, 55.3, 41, 54.3, 44.1, 34.7% and active: 5.47%, -0.229%"
